Reference: patent US20090311253A1 (AbbVie / Abbott, published 2009)

How the values were obtained:
Recombinant Human IL-4 [1] = target: T1, Recombinant Human IL-4 (human, UniProt P05112 25-153); experiment: direct bind ELISA
T1 sequence (looked up): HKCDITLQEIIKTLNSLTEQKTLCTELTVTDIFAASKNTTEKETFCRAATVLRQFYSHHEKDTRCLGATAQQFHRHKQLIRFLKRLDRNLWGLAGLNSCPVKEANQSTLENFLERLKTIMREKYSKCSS
Description: (§1) Enzyme Linked Immunosorbent Assays to screen for antibodies that bind a desired target antigen were performed as follows. High bind ELISA plates (Corning Costar # 3369, Acton, Mass.) were coated with 100 μL/well of 10 μg/ml of desired target antigen (R&D Systems, Minneapolis, Minn.) or desired target antigen extra-cellular domain/FC fusion protein (R&D Systems, Minneapolis, Minn.) or monoclonal mouse anti-polyhistidine antibody (R&D Systems # MAB050, Minneapolis, Minn.) in phosphate buffered saline (10×PBS, Abbott Bioresearch Center, Media Prep# MPS-073, Worcester, Mass.) overnight at 4° C. Plates were washed four times with PBS containing 0.02% Tween 20. Plates were blocked by the addition of 300 μL/well blocking solution (non-fat dry milk powder, various retail suppliers, diluted to 2% in PBS) for ½ hour at room temperature. Plates were washed four times after blocking with PBS containing 0.02% Tween 20.
(§2) Plates were washed 4 times with PBS containing 0.02% Tween 20.
(§3) One hundred microliters of enhanced TMB solution (Neogen Corp. #308177, K Blue, Lexington, Ky.) was added to each well and incubated for 10 minutes at room temperature. The reaction was stopped by the addition of 50 μL 1N sulphuric acid. Plates were read spectrophotometrically at a wavelength of 450 nm.

Recombinant Human IL-13 [2] = target: T2, Recombinant Human IL-13 (human, UniProt P35225 partial chain, limits assumed); experiment: direct bind ELISA
Description: as §1, §2, §3

Recombinant Human IL-4 [3] = target: T1, Recombinant Human IL-4; experiment: cell-based or functional assay
Recombinant Human IL-13 [4] = target: T2, Recombinant Human IL-13; experiment: cell-based or functional assay
Recombinant Human IL-4 [5] = target: T1, Recombinant Human IL-4; experiment: Biacore SPR
Description: (§4) The BIACORE assay (Biacore, Inc, Piscataway, N.J.) determines the affinity of antibodies or DVD-Ig with kinetic measurements of on-rate and off-rate constants. Binding of antibodies or DVD-Ig to a target antigen (for example, a purified recombinant target antigen) is determined by surface plasmon resonance-based measurements with a BiacoreR 1000 or 3000 instrument (Biacore® AB, Uppsala, Sweden) using running HBS-EP (10 mM HEPES [pH 7.4], 150 mM NaCl, 3 mM EDTA, and 0.005% surfactant P20) at 25° C. All chemicals are obtained from Biacore® AB (Uppsala, Sweden) or otherwise from a different source as described in the text. For example, approximately 5000 RU of goat anti-mouse IgG, (Fcγ), fragment specific polyclonal antibody (Pierce Biotechnology Inc, Rockford, Ill.) diluted in 10 mM sodium acetate (pH 4.5) is directly immobilized across a CM5 research grade biosensor chip using a standard amine coupling kit according to manufacturer's instructions and procedures at 25 μg/ml. Unreacted moieties on the biosensor surface are blocked with ethanolamine. Modified carboxymethyl dextran surface in flowcell 2 and 4 is used as a reaction surface. Unmodified carboxymethyl dextran without goat anti-mouse IgG in flow cell 1 and 3 is used as the reference surface. For kinetic analysis, rate equations derived from the 1:1 Langmuir binding model are fitted simultaneously to association and dissociation phases of all eight injections (using global fit analysis) with the use of Biaevaluation 4.0.1 software. Purified antibodies or DVD-Ig are diluted in HEPES-buffered saline for capture across goat anti-mouse IgG specific reaction surfaces. Antibodies or DVD-Ig to be captured as a ligand (25 μg/ml) are injected over reaction matrices at a flow rate of 5 μl/min. The association and dissociation rate constants, kₒₙ (M⁻¹s⁻¹) and koff (s⁻¹) are determined under a continuous flow rate of 25 μl/min. Rate constants are derived by making kinetic binding measurements at different antigen concentrations ranging from […]. The equilibrium dissociation constant (M) of the reaction between antibodies or DVD-Igs and the target antigen is then calculated from the kinetic rate constants by the following formula: KD=koff/kₒₙ. Binding is recorded as a function of time and kinetic rate constants are calculated.

Recombinant Human IL-13 [6] = target: T2, Recombinant Human IL-13; experiment: Biacore SPR
Description: as §4

[7] = target: T3, Recombinant Human TRANCE/RANKL/TNFSF 11 (human, UniProt O14788 69-317); experiment: direct bind ELISA
T3 construct: extracellular domain
T3 sequence (looked up): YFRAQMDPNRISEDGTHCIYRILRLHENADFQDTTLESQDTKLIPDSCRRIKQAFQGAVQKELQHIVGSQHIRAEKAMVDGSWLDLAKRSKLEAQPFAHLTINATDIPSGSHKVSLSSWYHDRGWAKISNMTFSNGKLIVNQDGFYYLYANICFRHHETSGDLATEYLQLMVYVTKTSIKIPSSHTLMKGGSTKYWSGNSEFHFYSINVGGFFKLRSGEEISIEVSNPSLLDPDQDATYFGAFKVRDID
Description: as §1, §2, §3

[8] = target: T4, Recombinant Human IL-6 sR (human, UniProt P08887 20-358, limits assumed); experiment: direct bind ELISA
T4 construct: domain: IL-6 sR; soluble receptor; also called IL-6R
T4 sequence (looked up): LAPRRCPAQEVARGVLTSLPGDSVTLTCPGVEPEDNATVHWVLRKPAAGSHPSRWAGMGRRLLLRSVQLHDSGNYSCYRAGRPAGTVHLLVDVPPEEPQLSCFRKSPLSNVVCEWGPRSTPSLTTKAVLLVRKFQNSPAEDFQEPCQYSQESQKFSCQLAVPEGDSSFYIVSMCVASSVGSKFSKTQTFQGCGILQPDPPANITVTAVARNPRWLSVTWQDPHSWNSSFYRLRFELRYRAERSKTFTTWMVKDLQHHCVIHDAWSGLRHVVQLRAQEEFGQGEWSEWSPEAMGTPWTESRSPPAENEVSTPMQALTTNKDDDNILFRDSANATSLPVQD
Description: as §1, §2, §3

IL-6R on cells = target: T5, IL-6R on cells (UniProt P08887 20-468, limits assumed); experiment: flow cytometry on cells, 2 µg/mL
T5 construct: whole, on cells
T5 sequence (looked up): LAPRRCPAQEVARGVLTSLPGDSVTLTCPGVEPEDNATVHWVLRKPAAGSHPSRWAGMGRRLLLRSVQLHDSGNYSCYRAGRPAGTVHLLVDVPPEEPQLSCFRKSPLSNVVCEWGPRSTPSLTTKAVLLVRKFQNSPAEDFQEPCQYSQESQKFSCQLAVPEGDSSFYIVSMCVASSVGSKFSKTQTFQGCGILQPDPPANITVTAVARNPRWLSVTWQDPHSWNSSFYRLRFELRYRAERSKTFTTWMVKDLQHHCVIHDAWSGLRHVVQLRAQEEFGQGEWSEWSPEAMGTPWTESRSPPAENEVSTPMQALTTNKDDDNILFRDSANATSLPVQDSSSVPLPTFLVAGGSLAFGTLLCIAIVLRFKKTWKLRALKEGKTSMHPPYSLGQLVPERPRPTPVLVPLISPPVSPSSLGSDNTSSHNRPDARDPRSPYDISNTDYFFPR
Description: Stable cell lines overexpressing a cell-surface antigen of interest or human tumor cell lines were harvested from tissue culture flasks and resuspended in phosphate buffered saline (PBS) containing 5% fetal bovine serum (PBS/FBS). Prior to staining, human tumor cells were incubated on ice with (100 μl) human IgG at 5 μg/ml in PBS/FCS. 1−5×10⁵ cells were incubated with antibody or DVD-Ig (2 μg/mL) in PBS/FBS for 30-60 minutes on ice. […] After 30 minutes incubation on ice, cells were washed twice and resuspended in PBS/FBS. Fluorescence was measured using a Becton Dickinson FACSCalibur (Becton Dickinson, San Jose, Calif.).
The geometric mean is the n root of the multiplication product of n fluorescent signals (a1×a2×a3 . . . an). With log-transformed data the geometric mean is used to normalize the weighting of the data distribution.

T2 sequence (P35225 35-146 limits assumed): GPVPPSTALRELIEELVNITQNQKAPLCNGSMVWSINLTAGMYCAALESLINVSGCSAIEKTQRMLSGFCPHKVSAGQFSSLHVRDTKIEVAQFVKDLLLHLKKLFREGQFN

B1: DVD268 (bispecific antibody, human IgG1, kappa)
heavy: QVTLRESGPALVKPTQTLTLTCTFSGFSLSTSGMGVSWIRQPPGKGLEWLAHIYWDDDKRYNPSLKSRLTISKDTSRNQVVLTMTNMDPVDTATYYCARRETVFYWYFDVWGRGTPVTVSSASTKGPEVTLRESGPGLVKPTQTLTLTCTLYGFSLSTSDMGVDWIRQPPGKGLEWLAHIWWDDVKRYNPALKSRLTISKDTSKNQVVLKLTSVDPVDTATYYCARTVSSGYIYYAMDYWGQGTLVTVSS[left out - human IgG1 constant region]
light: DIVLTQSPSSLSASVGDRVTITCKASQSVDYDGDSYMNWYQQKPGKAPKLLIYAASNLESGIPSRFSGSGSGTDFTFTISSLQPEDIATYYCQQSNEDPPTFGQGTKVEIKRTVAAPDIQMTQSPSSLSASVGDRVTISCRASQDIRNYLNWYQQKPGKAPKLLIFYTSKLHSGVPSRFSGSGSGTDYTLTISSLQPEDIATYYCQQGLTPPLTFGGGTKVEIKRTVAAPSVFIFPPSDEQLKSGTASVVCLLNNFYPREAKVQWKVDNALQSGNSQESVTEQDSKDSTYSLSSTLTLSKADYEKHKVYACEVTHQGLSSPVTKSFNRGEC
notes: outer AB027, inner AB051; vectors V1, V2
EC50 (Recombinant Human IL-4 [1]): 3.13 nM | EC50 (Recombinant Human IL-13 [2]): 583 nM | IL-4 Neutralization Assay EC50 (A549 cells, hTARC) (Recombinant Human IL-4 [3]): 0.73 nM | IL-13 Neutralization Assay EC50 (A549 cells, hTARC) (Recombinant Human IL-13 [4]): 0.9 nM | koff (Recombinant Human IL-4 [5]): 0.00131 s⁻¹ | kon (Recombinant Human IL-4 [5]): 233000 M⁻¹ s⁻¹ | Kd (Recombinant Human IL-13 [6]): 0.589 nM | koff (Recombinant Human IL-13 [6]): 0.000446 s⁻¹ | kon (Recombinant Human IL-13 [6]): 757000 M⁻¹ s⁻¹

B2: DVD130 (bispecific antibody, human IgG1, kappa)
heavy: EVQLLESGGGLVQPGGSLRLSCAASGFTFSSYAMSWVRQAPGKGLEWVSGITGSGGSTYYADSVKGRFTISRDNSKNTLYLQMNSLRAEDTAVYYCAKDPGTTVIMSWFDPWGQGTLVTVSSASTKGPEVQLQESGPGLVRPSQTLSLTCTVSGYSITSDHAWSWVRQPPGRGLEWIGYISYSGITTYNPSLKSRVTMLRDTSKNQFSLRLSSVTAADTAVYYCARSLARTTAMDYWGQGSLVTVSS[left out - human IgG1 constant region]
light: EIVLTQSPGTLSLSPGERATLSCRASQSVRGRYLAWYQQKPGQAPRLLIYGASSRATGIPDRFSGSGSGTDFTLTISRLEPEDFAVFYCQQYGSSPRTFGQGTKVEIKRTVAAPDIQMTQSPSSLSASVGDRVTITCRASQDISSYLNWYQQKPGKAPKLLIYYTSRLHSGVPSRFSGSGSGTDFTFTISSLQPEDIATYYCQQGNTLPYTFGQGTKVEIKRTVAAPSVFIFPPSDEQLKSGTASVVCLLNNFYPREAKVQWKVDNALQSGNSQESVTEQDSKDSTYSLSSTLTLSKADYEKHKVYACEVTHQGLSSPVTKSFNRGEC
notes: vectors V1, V2; also called RANKL and IL-6R DVD-Ig
EC50 [7]: 0.17 nM | EC50 [8]: 364 nM | FACS Geometric Mean (IL-6R on cells): 0.82
